# Measured values as given in PubChem BioAssay AID1159614 (National Center for Advancing Translational Sciences (NCATS), 2016).
# The whole screen tested about 45,000 compounds, of which about 65 (0.1%) were called active. The call rests on the fitted dose curve; in most records, active means well fitted activation curve with a large enough effect; inconclusive means small, poorly fitted or top-dose-only effect; inactive means no such curve, though single readings can be large or run the other way. Some of the results follow.
# Biological target: Galactocerebrosidase (Homo sapiens) (UniProt P54803)
# Chain of UniProt P54803 (P54803 whole entry, looked up): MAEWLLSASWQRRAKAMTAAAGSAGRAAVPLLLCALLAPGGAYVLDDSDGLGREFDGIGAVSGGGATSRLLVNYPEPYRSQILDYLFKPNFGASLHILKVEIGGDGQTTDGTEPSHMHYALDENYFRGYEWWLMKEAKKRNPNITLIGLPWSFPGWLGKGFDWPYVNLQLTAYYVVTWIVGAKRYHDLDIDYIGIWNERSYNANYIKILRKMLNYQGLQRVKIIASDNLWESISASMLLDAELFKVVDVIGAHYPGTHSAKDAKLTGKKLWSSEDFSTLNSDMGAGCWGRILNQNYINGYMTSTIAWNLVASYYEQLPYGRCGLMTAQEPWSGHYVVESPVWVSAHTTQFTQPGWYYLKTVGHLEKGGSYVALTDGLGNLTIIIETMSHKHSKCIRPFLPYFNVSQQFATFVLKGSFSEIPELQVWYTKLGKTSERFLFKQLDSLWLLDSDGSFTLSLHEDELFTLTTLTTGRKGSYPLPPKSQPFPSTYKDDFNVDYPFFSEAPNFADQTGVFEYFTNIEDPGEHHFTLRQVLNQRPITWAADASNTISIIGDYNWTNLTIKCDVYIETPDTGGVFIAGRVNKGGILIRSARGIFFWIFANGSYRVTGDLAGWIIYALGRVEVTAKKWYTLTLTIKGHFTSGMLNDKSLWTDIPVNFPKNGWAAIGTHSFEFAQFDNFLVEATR
# Test: A Novel Cell-Based Assay to Identify Small Molecules for B -Galactocerebrosidase; further: nearly all actives have a fitted effect of over 65% in size; on activation: 0% is about no effect
# Conditions: 145M-Twi-hGALC-G270D cells (Twitcher mouse brain line with human GALC G270D), HMU-beta-Gal fluorescence, 48 h; series mostly up to 57.5 µM; activation: at the top concentration
# Method in brief: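 Mutant human GALC (G270D), stably expressed in a Twitcher mouse brain cell line lacking endogenous GALC, is measured in live-treated cells via 6-hexadecanoylamino-4-methylumbelliferyl-β-galactoside hydrolysis (0.1 mM final, pH 5.2) with fluorescent detection.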
# Potency means the concentration at half of the fitted maximal effect.
SMILES,activation,Potency
COc1ccc(CNCCC(c2ccccc2)c2ccc3c(c2)OCO3)cc1 (stereo not drawn),inactive: -16.9%,–
COc1cccc(-c2nc(SCC(=O)NC3CCCC3)c(-c3ccccc3)[nH]2)c1,inactive: -20.5%,–
COc1ccc(NC(=O)Cn2cnc3ccc(S(=O)(=O)N4CCC(C)CC4)cc3c2=O)cc1OC,inactive: -0.984%,–
COc1ccc(-c2cnn3c(C)cc(C)nc23)cc1OC,inactive: -8.64%,–
CCOc1ccc(-c2nc(SCC(=O)NC3CCCC3)c(-c3ccccc3)[nH]2)cc1OC,inactive: -19.4%,–
Cc1c(-c2nsc(NC(=O)c3cccc(Cl)c3)n2)nnn1-c1ccccc1C(F)(F)F,inactive: -16.8%,–
CSc1ccc(CCNC(=O)CN2C(=O)c3cccnc3Oc3ccc(Cl)cc32)cc1,inactive: -7.38%,–
CCOc1ccc(CCNC(=O)CCc2c(C)nc3cc(-c4ccccc4OC)nn3c2C)cc1,inactive: -20.7%,–
CCCOc1ccc(C(=O)Nc2ccc(Cl)c(-c3nc4ncccc4o3)c2)cc1,inactive: -9.48%,–
O=C(CSc1nc(-c2cccs2)nc2cc(=O)[nH]n12)Nc1ccccc1F,inactive: -9.46%,–
CCOc1ccc(CCNC(=O)CSc2cc(=O)n(C)c3cc(Cl)ccc23)cc1OCC,inactive: -21.1%,–
Cc1ccc(-c2noc(CCCC(=O)NCc3ccco3)n2)cc1,inactive: -28.5%,–
Nc1c(-c2nc(-c3ccc4c(c3)OCO4)cs2)c2ccccn2c1C(=O)c1ccccc1,inactive: -5.68%,–
CCCCn1c(NCc2cc(Cl)ccc2O)nc2ccccc21,inactive: -37.6%,–
COc1cc(C(=O)N2CCc3c([nH]c4ccccc34)C2c2ccc(C)cc2)cc(OC)c1OC (stereo not drawn),inactive: 13.4%,–
CCc1ccc(C(=O)c2cn(CC(=O)Nc3ccc4c(c3)OCO4)c3ccc(Cl)cc3c2=O)cc1,inactive: -1.34%,–
NS(=O)(=O)c1ccc(N2CCCCS2(=O)=O)cc1,inactive: -2.57%,–
CCc1ccc(N(CC)C(=O)c2cn(C)c(=O)c3cc(OC)c(OC)cc23)cc1,inactive: -12.4%,–
CCOc1ccc2c(c1)NC(c1ccc(OCC)c(OCC)c1)=NC(c1ccc(F)cc1)=N2,inactive: -16.8%,–
COc1ccccc1C(=O)NC(=O)Nc1ccc(-c2cc(C(F)(F)F)nn2-c2ccccc2)cc1,inactive: -8.55%,–
Cc1ccc(S(=O)(=O)NCCc2nnc3ccc(SCC(=O)Nc4c(C)cc(C)cc4C)nn23)cc1,inactive: -2.54%,–
Cc1ccc(S(=O)(=O)N2CCCc3cc(NC(=O)c4ccc(Cl)cc4)ccc32)cc1,inactive: 11.6%,–
CCn1c(CNC(=O)c2ccc(OC)cc2)nnc1SCC(=O)Nc1cccc(C)c1,inactive: -8.15%,–
CCOc1ccc(CCNC(=O)c2c3c(nc4ccccc24)C(=O)N(C2CCCCC2)C3)cc1,inactive: -39.4%,–
CCN(CC)c1ccc(NC(=O)C2CCN(S(=O)(=O)c3c(C)noc3/C=C/c3ccccc3F)CC2)c(C)c1,inactive: -3.84%,–

SMILES,activation,Potency
CC(C)(C)C1CCc2c(sc3nc(-c4cc5cc(Cl)ccc5oc4=O)[nH]c(=O)c23)C1 (stereo not drawn),inactive: -5.78%,–
Cc1ccc(NC(=O)Cn2nc(C(F)(F)F)c3c2CCCC3)cc1,inactive: -2.1%,–
O=C(NCCc1ccccc1Cl)c1cc2ccccn2n1,inactive: -13.9%,–
Cc1ccc(CC(=O)NCc2nc(-c3ccccc3)no2)cc1,inactive: -13.6%,–
CCOC(=O)c1ccc(NC(=O)c2nc(SCc3ccc(F)cc3)ncc2Cl)cc1,inactive: -13.8%,–
COC(=O)c1c(NC(=O)c2cc(=O)c3cc(C)cc(C)c3o2)sc2c1CCC2,inactive: -13.5%,–
COc1ccccc1NC(=O)c1cc2cc3ccc(OC)c(Cl)c3nc2s1,inactive: -16%,–
Cc1cc(SCC(=O)Nc2ccc(F)cc2F)nc(=O)[nH]1,inactive: -4.84%,–
COc1ccc2ncc3c(-c4ccc(C)c(C)c4)nn(CC(=O)Nc4ccccc4)c3c2c1,inactive: -10.9%,–
CCCCn1c(=O)c2oc3ccccc3c2n(Cc2ccc(C)cc2)c1=O,inactive: 23.9%,–
COc1cccc(C(=O)Nc2nc(-c3nnn(-c4cccc(Cl)c4C)c3C)ns2)c1,inactive: -0.728%,–
COc1ccc2c(CNCc3ccco3)c(C(=O)O)n(Cc3cccc(F)c3)c2c1,inactive: -4.12%,–
COc1ccc(NC(=O)Cn2c(=O)n(-c3ccc(OC)cc3)c(=O)c3sc4ccccc4c32)cc1,inactive: -1.15%,–
COc1ccc(CNc2ncnc3c2c(-c2ccccc2)cn3-c2ccc(C)c(Cl)c2)cc1,inactive: -8.57%,–
O=C(Cn1cc(S(=O)(=O)Cc2ccccc2F)c2ccccc21)Nc1ccc(F)c(Cl)c1,inactive: -41.1%,–
COc1cc(C(=O)Nc2cc(C)c(O)c(-c3nc4ccccc4s3)c2)cc(OC)c1OC,inactive: -24.2%,–
O=C(NCCO)c1ccc(-c2nnc(Nc3ccc(OC(F)(F)Cl)cc3)c3ccccc23)cc1,inactive: -20.3%,–
CCCN(CCC)C(=O)C1CCN(c2cc(C)nc3c(-c4ccc(Cl)cc4)c(C)nn23)CC1,inactive: -10.2%,–
Cn1c(NCCCO)nc2c1c(=O)n(Cc1cccc(F)c1)c(=O)n2C,inactive: -23.9%,–
COc1ccc(C(=O)Nc2ccc(-c3nc4ccccc4s3)c(Cl)c2)cc1Cl,inactive: 2.62%,–
Cc1ccc(-c2c(C(=O)Nc3ccccc3F)oc(=O)c3ccccc23)cc1,inactive: -10%,–
CCCc1nn2c(=O)cc(COC(=O)c3ccc4c(c3)OCO4)nc2s1,inactive: -1.33%,–
Cc1cc2nc(-c3ccc(OCc4ccccc4F)cc3)cc(C(F)(F)F)n2n1,inactive: -7.9%,–
Cc1ccc(C)c(NC(=O)c2oc(=O)c3ccccc3c2-c2ccccc2)c1,inactive: -9.66%,–
Cc1ccc(C)c(Cn2c(SCC(=O)NCc3ccccc3)nc3ccccc32)c1,inactive: -12%,–

SMILES,activation,Potency
Cc1ccc(C)c(N2CCN(C(=O)Cn3cnc4nc5c(cc4c3=O)CCCC5)CC2)c1,inactive: -21.9%,–
CCOC(=O)c1cccc(NC(=O)C2=C(C)C(=O)OC23CCCCC3)c1,inactive: -14.8%,–
Cn1c(NCCN)nc2c1c(=O)n(Cc1ccccc1)c(=O)n2C,inactive: -18.5%,–
COc1ccc(N2CCN(C(=O)C3CCCN(S(=O)(=O)c4ccc5c(c4)oc(=O)n5C)C3)CC2)cc1 (stereo not drawn),inactive: -9.39%,–
Cc1cccc(N2CCN(C(=O)Cc3c(C(=O)O)c(C)cn3C)CC2C)c1 (stereo not drawn),inactive: 0.0163%,–
CN(Cc1ccccc1)C(=O)c1ccc(CSc2nc3cccnc3n2Cc2ccccc2)cc1,inactive: -21.3%,–
COc1ccc(NC(=O)Cn2c(=O)oc3cc(S(=O)(=O)N4CCCC4)ccc32)cc1OC,inactive: -24.2%,–
COc1ccc(CCNC(=O)c2ccc3nc(CCc4ccccc4)oc3c2)cc1OC,inactive: -6.94%,–
Cc1cccc(CSc2nc3ccncc3n2CC(=O)N(C)C2CCCCC2)c1,inactive: -18.8%,–
CCCS(=O)(=O)Nc1cccc(-c2cn3ccsc3n2)c1,inactive: -9.12%,–
COc1ccc(NC(=O)Cn2cnc3c(nc4n3CCCCC4)c2=O)cc1Cl,inactive: -17%,–
COc1ccc(OC)c(NC(=O)c2nnn(CC(=O)Nc3ccc(C(C)C)cc3)c2N)c1,inactive: -21.2%,–
CCCCc1cc2ccccc2c(OCCN(C)C)n1,inactive: -3.42%,–
CCc1cccc(NC(=O)CCn2nc(C)cc2C)c1,inactive: -11.3%,–
COc1ccccc1CCNC(=O)C1(c2cccs2)CCOCC1,inactive: -5.72%,–
COc1ccc(C2CC(=O)Nc3c2c(C)nn3-c2nc(C)cc(C)n2)c(OC)c1OC (stereo not drawn),inactive: -7.31%,–
COC(=O)c1c(NC(=O)COc2ccc(C(C)C)cc2)sc2c1CCCC2,inactive: -14.6%,–
CCC(=O)NCCc1sc2nc(-c3ccc(OC)cc3)nn2c1C,inactive: -9.56%,–
CCC1CCCCN1CCCNC(=O)c1ccc2c(c1)N(Cc1cccc(Cl)c1)C(=O)c1ccccc1S2(=O)=O (stereo not drawn),inactive: -5.11%,–
CC(=O)c1ccc(NC(=O)c2sc(-n3nc(C)c(Cc4ccc5c(c4)OCO5)c3C)nc2C)cc1,inactive: -7.25%,–
COc1cccc(CNCc2c(C(=O)O)n(Cc3ccc(C)cc3)c3cc(C)ccc23)c1OC,inactive: -0.257%,–
O=C(Nc1ccc2oc(-c3ccc(Br)cc3)nc2c1)c1cc2ccccc2o1,inactive: -11.8%,–
O=c1oc2c(CN3CCOCC3)c(O)ccc2cc1-c1ccccc1,–,active: 25.1 µM
COc1ccc(N2CCN(C(=O)c3noc4c3CCCCC4)CC2)cc1,inactive: -2.11%,–
Cc1ccc(N2C(=O)CSC23C(=O)N(CC(=O)NCCc2ccccc2)c2ccccc23)cc1 (stereo not drawn),inactive: -3.65%,–

SMILES,activation,Potency
CCC1CN(C(=O)N2CCC(C(=O)NCc3cccs3)CC2)c2ccccc2O1 (stereo not drawn),inactive: -16.4%,–
Cc1ccc(NC(=O)c2ccc(-c3ccccc3)s2)cc1,inactive: -14.7%,–
COc1ccc(CCNC(=O)c2cnc3sc(N4CCCCCC4)nn3c2=O)cc1,inactive: -12%,–
Cc1ccc(C(=O)OCc2cc(=O)n3nc(CC(C)C)sc3n2)cc1,inactive: -0.782%,–
CC(C(=O)O)c1ccc2c(c1)[nH]c1ccc(Cl)cc12 (stereo not drawn),inactive: -21.8%,–
CCOC(=O)c1ccccc1NC(=O)c1sc2nc(-c3ccc(F)cc3)cn2c1C,inactive: -13.4%,–
O=C(NCCc1nc2ccccc2n1Cc1ccc(Cl)cc1)c1ccccc1,inactive: -2.71%,–
COc1ccc(-c2nc3ccccc3o2)cc1NC(=O)c1cc(Br)ccc1OC,inactive: -5.9%,–
COc1ccc(C)cc1NC(=O)NCCn1nnc2cc(S(=O)(=O)N(C)C)ccc21,inactive: -7.21%,–
Cc1nnc(NC(=O)CSc2nc3c([nH]c4ccccc43)c(=O)n2-c2cccc(Cl)c2)s1,inactive: -19.4%,–
Cc1cc(C)cc(NCc2nnc3n2CCCCC3)c1,inactive: -12.8%,–
CCCN(C(=O)c1ccc2c(=O)n3c(nc2c1)CCCCC3)c1cccc(Cl)c1,inactive: -1.26%,–
Cc1ccc2occ(CC(=O)Nc3c(C)cccc3C)c2c1,inactive: -27.1%,–
O=C(CCNS(=O)(=O)c1ccc2c(c1)CCN2C(=O)C1CC1)Nc1ccc(Cl)cc1,inactive: -32.5%,–
CC(=O)N1CCc2cc(Br)cc(S(=O)(=O)CCC(=O)NCc3ccc(F)cc3)c21,inactive: -9.9%,–
COc1ccccc1CN1CCC(CNC(=O)c2cnn(-c3cccc(Cl)c3)c2C2CCN(C(=O)OC(C)(C)C)CC2)CC1,inactive: -20.3%,–
COc1ccc(OCC(=O)N2CCN(C(=O)c3ccc(OC)c(OC)c3)CC2)cc1,inactive: -15.8%,–
COc1cn(CC(=O)Nc2ccc(C)cc2)c(CN2CCCCC2)cc1=O,inactive: -6.82%,–
Cc1cccc(C)c1NC(=O)CCSCCc1ccccn1,inactive: -8.02%,–
COc1ccc(NC(=O)CN2C(=O)COc3ccc(S(=O)(=O)NC4CCCC4)cc32)cc1OC,inactive: 3.83%,–
Cc1cc2c(cc1S(=O)(=O)NCc1ccc(F)cc1)OCC(=O)N2,inactive: -11.3%,–
CCC(C(=O)NC(=O)NC(C)=O)c1ccccc1 (stereo not drawn),inactive: -11.7%,–
CCOC(=O)c1cc2c(=O)n3ccccc3nc2n(CCOC)c1=NC(=O)c1c(-c2c(F)cccc2Cl)noc1C,inactive: 17.1%,–
